Laboratory results published in patent US20210260159A1 (published 2021).

How the values were obtained:
[1] = target: T1, human CD40 on cells (HEK293 transfected with human CD40); Ramos-Blue B-lymphocytes; human B cells; human … (human, UniProt P25942 21-277); experiment: cell-based or functional assay
[2] = target: T1, human CD40 on cells (HEK293 transfected …); experiment: cell-based or functional assay; remark: listed apart in the source

Chain of UniProt P25942 (P25942 21-277 limits assumed): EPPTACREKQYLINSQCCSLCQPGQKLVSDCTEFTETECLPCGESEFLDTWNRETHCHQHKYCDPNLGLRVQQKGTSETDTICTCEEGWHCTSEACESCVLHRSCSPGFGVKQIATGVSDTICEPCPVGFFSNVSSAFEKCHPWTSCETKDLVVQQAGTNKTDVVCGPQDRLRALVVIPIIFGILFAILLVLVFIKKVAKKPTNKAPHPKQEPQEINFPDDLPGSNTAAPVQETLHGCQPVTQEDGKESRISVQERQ

B1: scCD40L-IgG4P-FP7 (Fc fusion)
chain: NPQIAAHVISEASSKTTSVLQWAEKGYYTMSNNLVTLENGKQLTVKRQGLYYIYAQVTFCSNREASSQAPFIASLWLKSPGRFERILLRAANTHSSAKPCGQQSIHLGGVFELQPGASVFVNVTDPSQVSHGTGFTSFGLLKLGGGGSGGGGSGGGGSQIAAHVISEASSKTTSVLQWAEKGYYTMSNNLVTLENGKQLTVKRQGLYYIYAQVTFCSNREASSQAPFIASLWLKSPGRFERILLRAANTHSSAKPCGQQSIHLGGVFELQPGASVFVNVTDPSQVSHGTGFTSFGLLKLGGGGSGGGGSGGGGSQIAAHVISEASSKTTSVLQWAEKGYYTMSNNLVTLENGKQLTVKRQGLYYIYAQVTFCSNREASSQAPFIASLWLKSPGRFERILLRAANTHSSAKPCGQQSIHLGGVFELQPGASVFVNVTDPSQVSHGTGFTSFGLLKLGGGGSGGGGSGGGGS[human IgG4 Fc with S228P (EU numbers) not given here]
[1]
  EC50 (nM), NFkB-luciferase reporter, HuCD40 293 HEK NFkB c3 cells: 0.438 nM
[2]
  EC50 (nM), NFkB/AP-1 reporter, Ramos-Blue B-cells: 0.107 nM
